# Source: PubChem BioAssay AID588342 (National Center for Advancing Translational Sciences (NCATS), 2011)
# Out of some 360,000 compounds screened, about 25,000 (6.9%) were called active. The shares of active, inactive and inconclusive entries below differ from those in the screen. The call rests on the fitted dose curve; in most records, active means well fitted inhibition curve with a large enough effect; inconclusive means small, poorly fitted or top-dose-only effect; inactive means flat fitted curve, though single readings scatter. Where the call is inconclusive, the potency comes from a doubtful curve fit.
# Target: Luciferin 4-monooxygenase (Photinus pyralis) (UniProt P08659)
# Sequence of UniProt P08659 (P08659 whole entry, looked up): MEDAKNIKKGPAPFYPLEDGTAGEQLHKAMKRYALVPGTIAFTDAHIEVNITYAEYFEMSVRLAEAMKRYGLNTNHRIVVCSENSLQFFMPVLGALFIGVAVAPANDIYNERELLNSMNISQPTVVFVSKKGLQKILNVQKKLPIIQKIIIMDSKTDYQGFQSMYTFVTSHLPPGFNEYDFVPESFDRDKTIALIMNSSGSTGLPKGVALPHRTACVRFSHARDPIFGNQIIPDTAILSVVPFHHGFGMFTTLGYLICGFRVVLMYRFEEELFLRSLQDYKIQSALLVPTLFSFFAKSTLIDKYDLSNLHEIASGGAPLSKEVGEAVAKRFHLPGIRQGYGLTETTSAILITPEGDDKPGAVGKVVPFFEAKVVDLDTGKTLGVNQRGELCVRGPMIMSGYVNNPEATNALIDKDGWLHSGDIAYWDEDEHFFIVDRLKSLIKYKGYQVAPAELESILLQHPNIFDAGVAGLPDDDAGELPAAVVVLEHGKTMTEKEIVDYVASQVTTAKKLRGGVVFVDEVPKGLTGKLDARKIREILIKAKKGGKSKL
# Assay: qHTS profiling assay for firefly luciferase inhibitor/activator using purifed enzyme and Km concentrations of substrates (counterscreen for miR-21 project); further: nearly all actives have a fitted effect of over 55% in size;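 on activity change, negative = inhibition: plate controls were vehicle for no effect and reference inhibitor for full effect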
# Conditions: purified FLuc, luminescence inhibition; activity change, negative = inhibition: at 57.5 µM (top of the series)
# Procedure, shortened: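 Biochemical qHTS of compounds, final roughly 60 µM downward over six points, against 10 nM purified firefly luciferase using Km concentrations of substrates (10 uM D-luciferin, 10 uM ATP) in Tris acetate pH 7.5 buffer; luminescence output.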
# Potency means the concentration at half of the fitted maximal effect; tags describe the fitted curve by direction and shape.
Structure (SMILES),"activity change, negative = inhibition",Potency
COc1ccccc1C(=O)Nc1cccc2nc(C)ccc12,inactive: -11%,
COc1ccc(S(=O)(=O)N2CCOCC2)cc1NC(=O)Cn1nnc2ccccc2c1=O,inactive: -2.63%,
Cc1cc(N2CCCC2=O)cc(C)c1S(=O)(=O)NCCOc1ccc(C(C)(C)C)cc1,inactive: 4.03%,
O=C(CNC(=O)c1cccc(Br)c1)N/N=C/c1cc(Br)cc(Br)c1O,,"inconclusive: 21.3 µM [inhibitor, partial curve, poor fit]"
Cc1nc(NC(=O)c2ccccc2)sc1-c1csc(Nc2cccc(F)c2)n1,,active: 13.5 µM
C(=N\Nc1cc(N2CCCCC2)ncn1)/c1ccco1,,active: 4.78 µM
Cc1ccc(C(=O)OCC(=O)NC2CCCC2)cc1,,"inconclusive: 26.9 µM [inhibitor, partial curve, poor fit]"
O=C(c1ccc(Br)o1)N1CCCc2ccccc21,inactive: -1.59%,
Cc1ccc(NC(=O)CSc2ncccc2C(=O)Oc2cccc([N+](=O)[O-])c2)cc1Cl,,"inconclusive: 19 µM [inhibitor, partial curve, poor fit]"
C=CCNC(=O)COCc1cc(-c2ccc3c(c2)OCO3)on1,,"inconclusive: 19 µM [inhibitor, single point]"
O=C(CN1C(=O)/C(=C/c2ccco2)SC1=S)Nc1ccc(O)c(C(=O)O)c1,,"inconclusive: 37.9 µM [inhibitor, single point]"
N#Cc1c(SCC(=O)Nc2nc3ccccc3s2)sc2c(O)cc(=O)[nH]c12,,active: 2.39 µM
O=C(NCCC1=CCCCC1)c1ccc2c(c1)ncn2-c1cccc(Cl)c1,,"inconclusive: 33.8 µM [inhibitor, partial curve, poor fit]"
COc1ccc(C(=O)Nc2cccc(-c3ccc(N4CCOCC4)nn3)c2)cc1,,active: 2.39 µM
O=C(CCNS(=O)(=O)c1cccc2nsnc12)Nc1ccc(F)cc1,inactive: 0.337%,
COc1ccc(NC(=O)Cn2c(-c3ccc(OC)cc3)cn(-c3ccc(C)cc3)c2=O)cc1,,"inconclusive: 23.9 µM [inhibitor, partial curve, poor fit]"
CC(C)NC(=O)c1onc(CSc2cccc(Cl)c2)c1C(=O)O,,"inconclusive: 37.9 µM [inhibitor, partial curve, poor fit]"
CN(Cc1nc2ccccc2s1)C(=O)c1ccc(F)cc1,,"inconclusive: 23.9 µM [inhibitor, single point]"
COc1ccc(N2C(=O)CCC(C(=O)O)C2c2ccc(F)cc2)cc1 (stereo unspecified),inactive: -1.99%,
Cc1cc(/C=N/NC(=O)C(=O)NCc2ccccn2)c(C)n1-c1cccc(Br)c1,,"inconclusive: 30.1 µM [inhibitor, single point]"
COc1ccc(OC)c(/C=N/NC(=O)c2cc3c(OC)cccc3[nH]2)c1,,"inconclusive: 26.9 µM [inhibitor, partial curve]"
N/C(=N\OC(=O)c1ccco1)c1cccnc1,,"inconclusive: 26.9 µM [inhibitor, single point]"
O=C1C=CC(=O)N1N(c1ccccc1)c1ccccc1,,"inconclusive: 26.9 µM [inhibitor, single point]"

Structure (SMILES),"activity change, negative = inhibition",Potency
CC(/C=N/NC(=O)c1ccccc1F)=C\c1ccccc1,,active: 3.38 µM
COc1ccc(-c2nc3ccccn3c2Cl)cc1,,active: 0.426 µM
COc1ccc2cnn(-c3ccc(C)cc3)c(=O)c2c1OC,,active: 23.9 µM
CC1=C(C(=O)O)N2C(=O)C(NC(=O)c3ccc(F)cc3)C2SC1 (stereo unspecified),,"inconclusive: 37.9 µM [inhibitor, single point]"
Cc1cc(C)n2cc(CSc3ccc(Br)cc3)nc2n1,,"inconclusive: 23.9 µM [inhibitor, partial curve, poor fit]"
O=C(CSc1ccsc1[N+](=O)[O-])NCc1ccccc1,,"inconclusive: 16.9 µM [inhibitor, single point]"
CC(C)(C)c1ccc(/C=C/C(=O)NCCCN2CCOCC2)cc1,,"inconclusive: 26.9 µM [inhibitor, partial curve, poor fit]"
CCN(C(=O)C(NS(=O)(=O)c1cccc2nsnc12)c1ccccc1)c1ccccc1 (stereo unspecified),inactive: -11%,
COc1ccc(-c2ccnc3c2c(=O)n(C)c(=O)n3C)cc1OC,inactive: -1.24%,
O=C(O)c1ccc(-c2nnc(-c3ccc([N+](=O)[O-])cc3)o2)cc1,inactive: -7.66%,
O=C(NCC1CCCO1)Nc1ccc2c(c1)OCO2 (stereo unspecified),,"inconclusive: 30.1 µM [inhibitor, single point]"
COc1ccccc1CCNC(=O)c1ccc2nc[nH]c2c1,,"inconclusive: 37.9 µM [inhibitor, partial curve, poor fit]"
COc1ccc2[nH]c(C(=O)NCCN3CCCCC3)cc2c1,,"inconclusive: 12 µM [inhibitor, partial curve, poor fit]"
O=C(CCC(=O)OCC(=O)c1ccc(-c2ccccc2)cc1)Nc1cccc(Cl)c1,,"inconclusive: 1.51 µM [inhibitor, partial curve, poor fit]"
O=C(C1CCN(c2nnc(-n3cccc3)s2)CC1)N1CCN(Cc2ccc3c(c2)OCO3)CC1,inactive: -2.4%,
CN(C)/C=C1\N=C(c2ccc3c(c2)OCO3)OC1=O,,"inconclusive: 13.5 µM [inhibitor, partial curve]"
Cc1ccccc1NC(=O)COC(=O)CNC(=O)c1sc2ccccc2c1Cl,,"inconclusive: 21.3 µM [inhibitor, single point]"
O=C(C1=C[C@@H](c2csc3ccccc23)C[C@@H](OCc2ccc(CO)cc2)O1)N1CCN(Cc2ccccc2)CC1,inactive: 0.606%,
CCN(CC)C(=N)/C(C#N)=N/Nc1ccccc1,,"inconclusive: 23.9 µM [inhibitor, partial curve]"
COc1cccc(-c2csc(N3CCN(Cc4ccccc4)CC3)n2)c1,,"inconclusive: 23.9 µM [inhibitor, single point]"
CSc1ccc(S(=O)(=O)Nc2ccc3c(c2)OCCO3)cc1,inactive: 1.92%,
O=C(O)CC/C(=N/NC(=O)c1cn(-c2ccccc2)nc1-c1ccccc1)C(=O)O,,"inconclusive: 15.1 µM [inhibitor, partial curve]"
COC(=O)c1sc(NC(=O)c2c(F)cccc2F)c(C#N)c1C,,"inconclusive: 21.3 µM [inhibitor, single point]"
